Assay results as given in PubChem BioAssay AID1508624 (National Center for Advancing Translational Sciences (NCATS), 2021).
About 120 (0.25%) of roughly 48,000 compounds were called active. Not shown: some 4% with an inconclusive outcome. Calls follow the shape of the dose curve; as a rule, active = well fitted activation curve with a large enough effect; inconclusive = small, poorly fitted or top-dose-only effect, or another doubt; inactive = no such curve, though single readings can be large or run the other way. This is one part of the list.

Assay: Primary qHTS for Identification of Small Molecule Activators of Huntingtin-Antisense Promoter Activity; also: nearly all actives have a fitted effect of over 55% in size
Details: HEK293 HTT-AS promoter firefly luciferase reporter, 24 h; series mostly up to 57.5 µM; activity change, positive = activation: at the top concentration
How it was run: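 HEK293 luciferase promoter-reporter cells (2,500/well) plated 24 h, then compounds added at up to 57.5 uM final for 24 h at 37 °C. Firefly luminescence by Dual-Glo, normalized to vehicle (0%) and zero RLU (-100%).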

Activity change, positive = activation, inactive:
CC(=O)c1ccc(N2CCN(S(=O)(=O)c3ccc4[nH]c5c(c4c3)CCCCC5)CC2)cc1 -35.5%
CCC1CN(C(=O)Nc2ccccc2C(F)(F)F)c2ccccc2S1 (centres undefined) 5.23%
CCC1CN(C(=O)N2CCC(C(=O)N(C)Cc3ccccc3)CC2)c2ccccc2O1 (centres undefined) -27.2%
Cc1ccc(CNC(=O)c2cc(S(=O)(=O)N3CCCCC3)cn2C)cc1 -29%
Cc1ccc2nc(CN3CCN(C(=O)Nc4cccc(C)c4C)CC3)oc2c1 -19%
COc1ccc(NC(=O)CN2C(=O)CC(c3ccco3)Sc3ccccc32)cc1OC (centres undefined) -25.2%
COC(=O)c1scc(-c2ccc(C)cc2)c1S(=O)(=O)Nc1c(C)cc(C)cc1C -15.2%
Cc1nc2c(-c3ccccc3)c(C)[nH]n2c(=O)c1Cc1ccc(C(C)C)cc1 -42.4%
CCS(=O)(=O)c1ncc(N(Cc2cccc(F)c2)Cc2ccco2)c(C(=O)Nc2ccccc2Cl)n1 -9.35%
Cc1onc(-c2ccccc2Cl)c1C(=O)N[C@@H]1C(=O)N2[C@@H]1SC(C)(C)[C@@H]2C(=O)O
COc1ccc2c(c1)c1c(c(=O)n(Cc3ccccc3)c(=O)n1Cc1ccc(C)cc1)n2C -15%
Cc1ccc(-n2ncc(C(=O)NCCCN3CCc4ccccc4C3)c2C2CCN(C(=O)OC(C)(C)C)CC2)cc1C -25.9%
CC(CNC(=O)CN1C(=O)COc2ccc(S(=O)(=O)N3CCCCC3)cc21)c1ccccc1 (centres undefined) -16.8%
O=C(Nc1ccc(Cl)cc1)C1CCN(S(=O)(=O)c2ccc(Br)s2)CC1 -43.8%
Cc1ccccc1C(=O)Nc1ccc(C(=O)OCc2cc(=O)n3nc(C4CC4)sc3n2)cc1 -47.3%
CC1CN(C(=O)Nc2ccc(C(=O)NCCc3ccccc3Cl)cc2)c2ccccc2S1 (centres undefined) 3.75%
COc1ccc(-c2cc(C(F)(F)F)n3nc(C(=O)Nc4sc5c(c4C#N)CCC(C)C5)cc3n2)cc1OC (centres undefined) 8.24% [at 11.5 µM, percent change from vehicle, -100% = no light]
CCC(C)NC(=O)c1[nH]c2cc(OC)ccc2c1Sc1ccc(C)cc1 (centres undefined) 5.97%
COc1ccccc1NC(=O)c1sc2nc(-c3cc4ccccc4oc3=O)[nH]c(=O)c2c1C -6.61%
COc1ccc(Cn2ccc3ccc(C(=O)NO)cc32)cc1 -16.3%
Cc1cc(C)cc(NC(=O)c2cccc(N3CCCS3(=O)=O)c2)c1 23.9%
O=C(Cc1ccc(Cl)cc1)NCC(c1cccs1)S(=O)(=O)c1ccc(Cl)cc1 (centres undefined) -34.1%
Cc1cccc(C(=O)Nc2nnc(SCc3cc(=O)n4cccc(C)c4n3)s2)c1 -3.28%
COc1ccc(C(=O)N/C(=C\c2cn(S(=O)(=O)N(C)C)c3ccccc23)C(=O)NCCCn2ccnc2)cc1 -2.17%
O=C(CSc1nnc(-c2ccccc2F)o1)N1CCc2ccccc21 7.89%
Cc1cccc(NC(=O)c2c(NC(=O)c3ccco3)sc3c2CCC(C(C)(C)C)C3)c1 (centres undefined) -11.8%
C#Cc1cccc(Nc2ncnc3cc(OCCOC)c(OCCOC)cc23)c1
CN(Cc1ccccc1)C(=O)C1CCN(Cc2cc3ccccc3n2Cc2ccccc2)CC1 -23.9%
CCOc1ccccc1NC(=O)CCNS(=O)(=O)c1ccc2c(c1)CCN2C(=O)C1CC1 -22.4%
Cc1ccc(/C=C/c2onc(C)c2S(=O)(=O)N2CCC(C(=O)NCc3ccc(N(C)C)cc3)CC2)cc1 18.4%
CCCCS(=O)CC(O)CSc1nc(-c2ccc(OC)cc2)cc(-c2ccccc2)c1C#N (centres undefined) -21.1% [at 11.5 µM, percent change from vehicle, -100% = no light]
COc1ccc(NC(=O)CN(c2ccc(C)cc2)S(=O)(=O)c2cccs2)cc1OC -6.88%
Fc1ccccc1N1CCN(c2c3c(nc4nncn24)CCC3)CC1 -33.9%
CCC(Sc1nnc(-c2ccc(OC)cc2)c(-c2ccc(OC)cc2)n1)C(=O)Nc1cccc(OC)c1 (centres undefined) -12.7%
Cc1ccc(OCCCC(=O)Nc2sc3c(c2C(N)=O)CCCC3)cc1 13%
Cn1ncc2c(N3CCN(c4ccccc4Cl)CC3)ncnc21 -20.8%
CCCCN(C)C(=O)Cn1ncc2c([nH]c3ccc(C)cc32)c1=O -11.3%
CCC(C(=O)NCc1ccccc1)n1ncn2c(cc3occc32)c1=O (centres undefined) -7.98%
Cc1cccc(C(=O)Nc2cccc(C(=O)OCc3cc(=O)n4ccsc4n3)c2)c1 20.3%
CCOC(=O)c1ccc2ncc(C(=O)OCC)c(Nc3ccc(C)c(Br)c3)c2c1 -38.4%
COc1ccc(Br)cc1CNC(=O)CN1C(=O)CSc2ccc(S(=O)(=O)N3CCOCC3)cc21 -16.6%
Cc1ccc(NC(=O)c2cc3c(=O)n(Cc4cccnc4)ccc3nc2C)cc1F 6.28%
COc1ccc(OC(C)C(=O)NCc2nc(-c3ccc(Cl)cc3)no2)cc1 (centres undefined) -32.9%
COc1ccc(NC(=O)CNS(=O)(=O)c2cccs2)c(OC)c1 19.7%
CC(C)Sc1ncc(Cl)c(C(=O)Nc2ccc(S(=O)(=O)N3CCCCC3C)cc2)n1 (centres undefined) -37.9%
COc1ccc(OC)c(CNC(=O)c2cccc(NC(=O)N3CCSc4ncccc43)c2)c1 -14.6%
NS(=O)(=O)c1cc2c(cc1Cl)NC=NS2(=O)=O
O=c1c2oc3ccccc3c2n(Cc2cccc(C(F)(F)F)c2)c(=O)n1Cc1ccc2c(c1)OCO2 -19.4%
COc1cc(OC)cc(C(=O)Nc2ccc(S(=O)(=O)Nc3onc(C)c3C)cc2)c1 1.48%
CCOC(=O)c1c(C)[nH]c(CCC(=O)Nc2cc(C)cc(C)c2)c1C -22.8%
O=C(Cn1nc(C(F)(F)F)c2c1CCCC2)Nc1ccc(Cl)cc1 -31.4%
Cc1ccc(-n2c3c(cc(-c4nc(-c5ccc(Cl)cc5)cs4)c2=O)C(=O)CC(C)(C)C3)cc1 -3.35%
COc1cccc(CNC(=O)CN2C(=O)CCn3nc(-c4cn(C)c5ccccc45)cc32)c1OC 2.25%
CCc1ccc(N2C(=O)CSC23C(=O)N(Cc2cccc(F)c2)c2ccccc23)cc1 (centres undefined) -31.8%
CCOC(=O)c1cccc(NC(=O)c2cc(-c3ccc(Cl)s3)nc3ccccc23)c1 -13.6%
O=C(NCCc1ccccc1)c1ccc(CSc2nc3ccncc3n2Cc2ccccc2)cc1 10.4%
Cc1ccc(NC(=O)CSc2nc(C)cc(C)c2C(=O)Nc2cccc(C)c2)cc1 -28.5%
COc1ccc(NC(=O)Cn2ncc3c([nH]c4ccccc43)c2=O)cc1Cl -8.58%
CCN(CC)CCCNC(=O)c1cn(C)c2ccc(S(=O)(=O)N3CCOCC3)cc2c1=O -4.2%
CCCn1cc(S(=O)(=O)c2ccccc2)c(=O)c2cc(F)c(N3CCCC3)cc21 0.309%
CCc1ccccc1NC(=O)c1cc(S(=O)(=O)NC2CCCC2)ccc1F -20.7%
Nc1ccc(S(=O)(=O)Nc2ccccc2)cc1 1.01%
COc1ccc(-n2nc(C(=O)N3CCN(c4cccc(C)c4)C(C)C3)c3c4ccccc4n(C)c3c2=O)cc1 (centres undefined) 2.3%
CCCn1ccc2c(OCC(=O)Nc3ccc(F)cc3F)cccc2c1=O -21%
Cc1cccc(OCC(=O)Nc2ccc3c(c2)N(C)C(=O)c2ccccc2S3)c1 -31.7%
Cc1cccc(NC(=O)CSc2nc3c([nH]c4ccccc43)c(=O)n2-c2ccc(F)cc2)c1C -22.8%
COc1ccc(NC(=O)c2ccco2)cc1NC(=O)COc1ccccc1Cl -22.6%
Cc1ccc(C(=O)N/C(=C\c2cn(S(=O)(=O)N(C)C)c3ccccc23)C(=O)NCCCn2ccnc2)cc1 -13.9%
CCOc1ccccc1N(C)C(=O)NCc1noc2ccccc12 -8.14%
CCn1cc(C(=O)NC(C)c2ccccc2)c(=O)c2cc(S(=O)(=O)N3CCc4ccccc4C3)ccc21 (centres undefined) -28.4%
Cc1ccc(-n2nc(C)c3nc(CCC(=O)Nc4ccc(F)cc4)c(=O)n(C)c32)cc1 -1.16%
Cc1ccc(NC(=O)Cn2cc(S(=O)(=O)N3CCCC3)c(S(=O)(=O)N3CCCC3)c2)c(C)c1 8.97% [at 11.5 µM, percent change from vehicle, -100% = no light]
CC(C)Nc1cccnc1N1CCN(C(=O)c2cc3cc(NS(C)(=O)=O)ccc3[nH]2)CC1 -15.1%
O=C(NCCc1ccc(Cl)cc1)c1cccn1-c1nnc(N2CCCC2)s1 -9.11%
COc1ccc(C(=O)c2cn(CC(=O)Nc3ccc4c(c3)OCO4)c3ccc(OC)cc3c2=O)cc1 -23.1%
Cc1nn(S(=O)(=O)c2ccc(C(C)C)cc2)c(C)c1S(=O)(=O)N1CCCCC1 -6.43%
Cc1ccc2c(c1)-c1c(cnn1CC(=O)N1CCN(c3cccc(C(F)(F)F)c3)CC1)CO2 -28.5%
CC(=O)N1CCCc2cc(S(=O)(=O)N3CCCC(C(=O)N4CCN(c5ccccc5F)CC4)C3)ccc21 (centres undefined) -34.2%
CC(=O)OC[C@@H]1O[C@@H](n2ccc(=O)[nH]c2=O)[C@H](OC(C)=O)[C@H]1OC(C)=O -10.3%
CCc1cccc(C)c1NS(=O)(=O)c1ccc2c(c1)NC(=O)C(C)C(=O)N2 (centres undefined) -1.45%
CCOc1ccc(-n2c(=O)c3c4c(sc3n(CC(=O)NCCCOC)c2=O)CCCCC4)cc1 -16.6%
COc1ccc(CNC(=O)CN2C(=O)COc3ccc(S(=O)(=O)N4CCCCCC4)cc32)cc1 -15.3%
COc1ccc(-n2c(SCC(=O)NCc3ccccc3)nc3ccsc3c2=O)cc1 -27.9%
COC(=O)c1sccc1S(=O)(=O)N(CC(=O)Nc1cc(C)cc(C)c1)c1ccc(Cl)cc1 -34.8%
COc1ccc(C2(C#N)CCC(C(=O)O)CC2)cc1OC1CCCC1 (centres undefined) -26.3%
COc1ccc(NC(=O)c2nn(C)c3c2CSc2ccc(C)cc2-3)cc1OC -36%
COc1ccc(CNC(=O)c2ccc(CNS(=O)(=O)c3ccc(OC)cc3)cc2)cc1 -6.05%
Cc1[nH]c(C=C2C(=O)Nc3ccccc32)c(C)c1CCC(=O)O -90.3%
COCCCNC(=O)c1ccc(Cn2c(=O)c3ccccc3n(Cc3ccc(C)cc3)c2=O)cc1 -18.3%
